Source: PubChem BioAssay AID652104 (National Center for Advancing Translational Sciences (NCATS), 2013)
The whole screen tested about 410,000 compounds, of which about 7,200 (1.8%) were called active. Inconclusive means that the source gave no clear call. Such entries were picked first, then a sample of the others. The call rests on the fitted dose curve; in most records, active means well fitted activation curve with a large enough effect; inconclusive means small, poorly fitted or top-dose-only effect, or another doubt; inactive means no such curve, though single readings can be large or run the other way. No potency is given beside an inconclusive call; the fits are too rough.

assay: qHTS of TDP-43 Inhibitors; details: TDP-43 expressing yeast growth rescue, BacTiter-Glo, 24 h; growth rescue (activation): at 46.1 µM (top of the series) unless noted; further: nearly all actives have a fitted effect of over 50% in size; on growth rescue (activation): % of control where 0% means no effect
Method in brief: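 Cell-based yeast growth screen: TDP-43 expression induced in galactose, inoculum OD600=0.02 after raffinose pregrowth to mid-log. Read-out BacTiter-Glo luminescence at 24 hr, 30 deg C; inhibition of toxicity seen as signal increase.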
Potency means the concentration at half of the fitted maximal effect; tags describe the fitted curve by direction and shape.

Compound	Potency	growth rescue (activation)
Cc1onc(-c2c(Cl)cccc2Cl)c1C(=O)ONC(=O)c1cc(C(F)(F)F)cc(C(F)(F)F)c1	inconclusive [activator, single point]	–
Cc1cc(C(=O)N2CCC2(C)C(=O)Nc2cccc3c2CCCC3)nn1C (stereo not given)	inconclusive [activator, single point]	–
COC(=O)C1=NN(c2ccc(OC)cc2)C2C(=O)N(c3ccccc3OC)C(=O)C12 (stereo not given)	–	inactive: 13.1%
COc1ccc(CC(=O)OCC(=O)Nc2ncc(Cl)cc2Cl)cc1OC	–	inactive: -7.29%
Cc1c(=O)n(OCc2ccc(Cl)cc2)c2ccccc2[n+]1[O-]	inconclusive [activator, full curve]	–
COc1ccccc1NC(=O)CCCN1C(=O)C(c2ccccc2)Oc2cccnc21 (stereo not given)	inconclusive [activator, partial curve]	–
O=C(c1ccccc1)C(O)c1ccccc1 (stereo not given)	inconclusive [activator, partial curve]	–
Clc1ccc(OCc2nn3c(-c4ccco4)nnc3s2)cc1	active: 17.8 µM	–
COc1ccc(OC)c(-c2cc(C(=O)N3CCN(c4ccccc4)CC3)no2)c1	active: 22.4 µM	–
COc1ccc(Cl)cc1NC(=O)c1nn(C)c2c1CS(=O)(=O)c1ccccc1-2	inconclusive [activator, partial curve]	–
COc1ccccc1NC(=O)CCn1c(=O)oc2cc(Cl)ccc21	inconclusive [activator, partial curve]	–
COc1ccccc1CNC(=O)c1cc2c(C)nn(Cc3ccc(F)cc3)c2s1	inconclusive [activator, single point]	–
CCc1cc2c(N3CCN(C(=O)c4ccco4)CC3)ncnc2s1	inconclusive [activator, partial curve]	–
COc1ccc(-c2cc(C(=O)NCCc3ccccc3)c3cc(C(C)C)ccc3n2)cc1	inconclusive [activator, full curve, poor fit]	–
O=C1CC(Sc2nnc(-c3ccccc3)o2)C(=O)N1c1ccccc1 (stereo not given)	inconclusive [activator, partial curve]	–
O=C1c2sc3nc4n(c(=O)c3c2CCC1Br)CCCCC4 (stereo not given)	active: 12.6 µM	–
O=C(c1ccccc1F)N1CCN(S(=O)(=O)c2ccc3c(c2)OCCO3)CC1	inconclusive [activator, single point]	–
O=C(Nc1ccn(CC(=O)N2CCN(c3ccccn3)CC2)c(=O)n1)OCc1ccccc1	–	inconclusive: 27.9% [activator]
COc1ccc(-n2c(=O)c3ccc(C(=O)NCc4ccc(C)cc4)cc3n(CC(=O)Nc3ccc(C)cc3)c2=O)cc1	–	inactive: 9.28%
O=C1C2C3C=CC(C3)C2C(=O)N1CN(Cc1ccccc1)CN1C(=O)C2C3C=CC(C3)C2C1=O (stereo not given)	active: 5.62 µM	–
CCCCn1c(=S)[nH]c2ccccc2c1=O	active: 14.1 µM	–
CC(NC(=O)Cn1c(-c2cccs2)cc2cc(F)ccc21)c1ccccc1 (stereo not given)	–	inactive: 10.4%
O=C1C(Cc2ccccc2)NC(=S)N1Cc1ccccc1 (stereo not given)	inconclusive [activator, partial curve, poor fit]	–

Compound	Potency	growth rescue (activation)
CC(C)(C)c1cc(NC(=O)COC(=O)c2ccc3c(=O)n4c(nc3c2)CCC4)n(-c2ccccc2)n1	–	inactive: 15.7%
Cc1cc(C)n(CCOc2ccc(Cl)cc2Cl)n1	inconclusive [activator, full curve]	–
O=C(Nc1ccc(N=Nc2ccccc2)c(NC(=O)C2CCCO2)c1)C1CCCO1 (stereo not given)	active: 14.1 µM	–
CN(C)Cc1ccccc1CNC(=O)c1ccc(Cl)c(S(=O)(=O)NC2CC2)c1	–	inactive: 14.2%
CC1=C(C(=O)Nc2ccccc2C)C(c2ccccn2)n2nc(SCc3ccccc3F)nc2N1 (stereo not given)	–	inactive: 19%
CC(=O)SCCC(=O)Nc1ccccc1	inconclusive [activator, single point]	–
Cc1nc(SCC(=O)c2cccs2)c2oc3ccccc3c2n1	inconclusive [activator, partial curve]	–
CC(C)(C)C(=O)N1CCN(c2nc3c(F)cccc3s2)CC1	inconclusive [activator, partial curve]	–
Cc1noc2ncnc(NCc3cccc(Cl)c3)c12	inconclusive [activator, single point]	–
Cc1ccc(N2C(=O)CC(Sc3ccccc3C(=O)O)C2=O)cc1 (stereo not given)	inconclusive [activator, single point]	–
Cc1cc(NC2CCCC2)n2ncc(-c3ccccc3)c2n1	inconclusive [activator, single point]	–
O=C(NCc1ccc(Cl)cc1)c1ccc(Cl)cc1[N+](=O)[O-]	–	inactive: 3.7%
COC(=O)c1cc(C(=O)OCC(=O)NC2CCCCCCC2)cc([N+](=O)[O-])c1	inconclusive [activator, single point]	–
COc1ccc(OCc2cc(C(=O)N3CCCC(OC)C3)no2)c2ccccc12 (stereo not given)	inconclusive [activator, partial curve]	–
Cc1ccc(NCC(=O)N/N=C\c2ccc([N+](=O)[O-])o2)cc1	inconclusive [activator, single point]	–
Cc1ccc(/C=N/Nc2nc3ccccc3s2)o1	active: 11.2 µM	–
Cc1cccc(N2CCN(C(=O)c3ccoc3C)CC2)c1C	inconclusive [activator, partial curve]	–
Cc1c(C(=O)NCc2ccccc2Cl)sc2nc3n(c(=O)c12)CCC3	active: 17.8 µM	–
CCNC(=S)N/N=C/c1c(Cl)cccc1Cl	inconclusive [activator, full curve]	–
Cc1cccc(-c2nc3nc(C)cc(N4CCN(c5ccccc5)CC4)n3n2)c1	inconclusive [activator, full curve, poor fit]	–
COc1ccc(N2CCN(C(=O)CCn3cnc4onc(-c5ccc(F)cc5)c4c3=O)CC2)cc1	inconclusive [activator, single point]	–
COc1cccc(N2CCN(Cc3nnc(-c4ccc5c(c4)OCO5)o3)CC2)c1	inconclusive [activator, full curve, poor fit]	–
